From PubChem BioAssay AID651820 (National Center for Advancing Translational Sciences (NCATS), 2012)
Screen size: about 340,000 compounds; about 12,000 (3.5%) were called active. The inconclusive results got no clear call from the source; some entries with a clear call stand among them for comparison. The call rests on the fitted dose curve; in most records, active means well fitted inhibition curve with a large enough effect; inconclusive means small, poorly fitted or top-dose-only effect, or another doubt; inactive means no such curve, though single readings can be large or run the other way. Potencies of inconclusive entries are left out as doubtful fits.

Experiment: qHTS Assay for Inhibitors of Hepatitis C Virus (HCV)
Conditions: Huh7.5.1 HCVcc-Cre (HCVcc is cell-culture hepatitis C virus) infection, luciferase reporter, 44 h; series mostly up to 41.8 µM
In short: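 Compounds are dispensed onto cells plated 4 h earlier at 1,000 per well, with HCVcc-Cre virus (about 0.5 moi) added next. Following 44 h of culture, luminescent signal is measured for 15 sec after 15 min with substrate at room temperature.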
Potency means the concentration at half of the fitted maximal effect; tags describe the fitted curve by direction and shape.

Which Potency does the source give for `Cc1cccn2cc(-c3ccc(F)cc3)cc12` here?
The Potency was inconclusive [inhibitor, single point].

For `CC1CCN(CC(=O)Nc2cccc([N+](=O)[O-])c2)CC1`, which Potency is on record?
Its Potency is inconclusive [inhibitor, single point].

For `CCCn1c(SCC(=O)N2N=C3/C(=C/c4ccc(OC)cc4)CCCC3C2c2ccc(OC)cc2)n[nH]c1=O` (centres undefined), which Potency is on record?
Its Potency is inconclusive [inhibitor, single point].

Which Potency does the source give for `CCO[C@@H]1OC(C(=O)NCc2nc3ccccc3[nH]2)=C[C@H](c2cn(C(C)=O)c3ccccc23)[C@H]1CCCO` here?
Its Potency is inconclusive [inhibitor, partial curve].

Which Potency does the source give for `CC(C)c1ccc(Nc2c([N+](=O)[O-])c(=O)n(C)c3ccccc23)cc1` here?
The Potency was “inactive”.

For `COc1ccc(OC)c(-n2c(C)ccc2-c2ccc(S(C)(=O)=O)cc2)c1`, which Potency is on record?
The Potency was “inactive”.

Which Potency does the source give for `CCc1ccc(/C=C2/Sc3ccccc3N(CC(=O)NCC3CCCO3)C2=O)cc1` (centres undefined) here?
Its Potency is active: 10 µM.

With `O=C(Nc1c2c(nc3c1CCC3)CCCC2)c1ccccn1` as the molecule, how does the Potency read?
Its Potency is inconclusive [inhibitor, single point].

Which Potency does the source give for `CCCCOC(=O)c1ccc(NC(=O)c2nn(C)cc2Br)cc1` here?
The Potency was inconclusive [inhibitor, partial curve].

For `Cc1cccc2c1N(CCOc1ccc(C(C)(C)C)cc1)C(=O)C2=O`, which Potency is on record?
Its Potency is inconclusive [inhibitor, partial curve, poor fit].

For `O=C(Nc1ccc(F)cc1)c1sc(Cl)nc1-c1ccccc1`, which Potency is on record?
Its Potency is “inactive”.

With `Cc1ccc2nc(C)cc(Nc3ccc([N+](=O)[O-])cc3)c2c1` as the molecule, how does the Potency read?
The Potency was active: 3.55 µM.

Which Potency does the source give for `COc1cc(Nc2nnc(C)s2)c(Cl)cc1Cl` here?
Its Potency is inconclusive [inhibitor, single point].

For `Cc1coc2c(C)c3oc(=O)c4c(c3cc12)CCCC4`, which Potency is on record?
Its Potency is inconclusive [inhibitor, full curve, poor fit].

With `CCOc1cccc2c1OC(c1cc(OC)c(OC)c(OC)c1)N1N=C(c3ccc(C)o3)CC21` (centres undefined) as the molecule, how does the Potency read?
Its Potency is inconclusive [inhibitor, single point].

Which Potency does the source give for `CCCC(=O)N1CCN(c2nc3ccc(Cl)cc3s2)CC1` here?
Its Potency is active: 11.2 µM.

With `O=C(c1ccc(Cl)cc1)C1CCCN(Cc2cccn2-c2ccccn2)C1` (centres undefined) as the molecule, how does the Potency read?
The Potency was “inactive”.

With `Cc1cc(N/N=C/c2ccc3c(c2)OCO3)nc2ccccc12` as the molecule, how does the Potency read?
The Potency was inconclusive [inhibitor, single point].

With `CC1CCN(C(=O)C2CCN(S(=O)(=O)c3cccc4cccnc34)CC2)CC1` as the molecule, how does the Potency read?
Its Potency is “inactive”.

With `COC(=O)c1cc(C)[nH]c2c(C)cc3nc4ccccc4c3c12` as the molecule, how does the Potency read?
Its Potency is active: 10 µM.

With `O=C(CCc1ccccc1)Nc1ccc2ccccc2n1` as the molecule, how does the Potency read?
Its Potency is inconclusive [inhibitor, partial curve].

Which Potency does the source give for `CC(C)[C@H](NC(=O)OCc1ccccc1)C(=O)OCc1cc(=O)oc2cc(O)ccc12` here?
The Potency was “inactive”.

Which Potency does the source give for `COc1ccc(S(=O)(=O)N2CCCC(C(=O)NCc3ccco3)C2)cc1Cl` (centres undefined) here?
Its Potency is inconclusive [inhibitor, single point].

Which Potency does the source give for `N#CCSc1ccsc1C(=O)Nc1ccc(F)cc1` here?
The Potency was inconclusive [inhibitor, single point].

Which Potency does the source give for `C=CCNC(=O)C1CC(=O)N(c2ccc(OCC(=O)Nc3ccc(Cl)c(C(F)(F)F)c3)cc2)C1` (centres undefined) here?
The Potency was inconclusive [inhibitor, full curve, poor fit].

With `CSc1cccc(CN2CCC(Oc3ccc(C(=O)N4CCCCC4)cc3)CC2)c1` as the molecule, how does the Potency read?
The Potency was inconclusive [inhibitor, full curve, poor fit].

Which Potency does the source give for `C=CCN=c1scc(-c2ccc3c(c2)NC(=O)CO3)n1/N=C(\C)c1ccccn1` here?
The Potency was inconclusive [inhibitor, full curve].

Which Potency does the source give for `Cn1cccc1C(=O)NC(=O)COC(=O)c1cc(Cl)ccc1[N+](=O)[O-]` here?
The Potency was “inactive”.

With `COCCn1c(SCC(=O)Nc2cccnc2Cl)nc2cc(Cl)ccc2c1=O` as the molecule, how does the Potency read?
The Potency was inconclusive [inhibitor, single point].

With `CC(=O)c1cc2c(cc1N/C(=N/S(=O)(=O)c1ccc(Br)cc1)c1ccccc1)OCO2` as the molecule, how does the Potency read?
The Potency was inconclusive [inhibitor, full curve, poor fit].

For `CCN(CC(=O)Nc1ccccc1OC)C(=O)c1ccc(NC(=O)c2cccs2)cc1`, which Potency is on record?
The Potency was inconclusive [inhibitor, single point].

With `CCC(CO)Oc1cc(NC(=O)c2ccccc2F)c2ncn(C(C)C)c2c1` (centres undefined) as the molecule, how does the Potency read?
The Potency was inconclusive [inhibitor, single point].

With `Cc1c(C(=O)NCCc2ccccc2)oc2ccc(S(=O)(=O)N3CCC4(CC3)OCCO4)cc12` as the molecule, how does the Potency read?
The Potency was active: 11.2 µM.

For `Fc1ccc(-c2csc(N3CCSCC3)n2)cc1`, which Potency is on record?
The Potency was inconclusive [inhibitor, single point].

Which Potency does the source give for `COc1cccc2sc(N(CCCN(C)C)C(=O)COc3ccc(Cl)cc3)nc12` here?
The Potency was inconclusive [inhibitor, single point].

Which Potency does the source give for `COC(=O)C1=CO[C@@H](O[C@@H]2O[C@H](CO)[C@@H](O)[C@H](O)[C@H]2O)C2C1C[C@H](O)[C@@H]2C` (some centres undefined) here?
Its Potency is active: 2.51 µM.

For `CN(C)CCNC(=O)Cn1nc(C(F)F)cc1C1CC1`, which Potency is on record?
The Potency was “inactive”.

For `CC(Oc1ccccc1)C(=O)Nc1c2c(nn1-c1ccccc1)CS(=O)(=O)C2` (centres undefined), which Potency is on record?
The Potency was “inactive”.

With `COC(=O)[C@H]1C[C@@H]1[C@H](N)c1ccccc1` as the molecule, how does the Potency read?
The Potency was “inactive”.

For `O=C(Nc1cccc2ncccc12)c1cc(Br)ccc1Cl`, which Potency is on record?
Its Potency is “inactive”.

With `Cc1ccc(Cl)cc1N1CCN(Cc2nc3c(c(=O)[nH]c(=O)n3C)n2Cc2ccccc2F)CC1` as the molecule, how does the Potency read?
Its Potency is inconclusive [inhibitor, single point].

Which Potency does the source give for `COc1ccc2[nH]c3c(c2c1)CCN1C(=O)C(CC(=O)NC/C=C(\C)CCC=C(C)C)C[C@H](C(=O)N2CCOCC2)[C@@]31CCC1CCCC1` (some centres undefined) here?
Its Potency is active: 2.51 µM.

With `COc1ccc(C2c3ccc4ccccc4c3Oc3ncn(Cc4ccco4)c(=N)c32)cc1OC` (centres undefined) as the molecule, how does the Potency read?
The Potency was inconclusive [inhibitor, single point].

For `O=C1NC(=Nc2ccc(Cl)cc2)/C(=C/c2ccco2)S1`, which Potency is on record?
Its Potency is inconclusive [inhibitor, partial curve].
